The labels stand for the following.
B1: PhoQ; a variant is named by its letters at X, in order, P23837 (parent)
chain: MKKLLRLFFPLSLRVRFLLATAAVVLVLSLAYGMVALIGYSVSFDKTTFRLLRGESNLFYTLAKWENNKLHVELPENIDKQSPTMTLIYDENGQLLWAQRDVPWLMKMIQPDWLKSNGFHEIEADVNDTSLLLSGDHSIQQQLQEVREDDDDAEMTHSVAVNVYPATSRMPKLTIVVVDTIPVELKSSYMVWSWFIYVLSANLLLVIPLLWVAAWWSLRPIEALAKEVRELEEHNRELLNPATTRELTSLVRNLNRLLKSERERYDKYRTTLTDLTHSLKTPLXXLQXXLRSLRSEKMSVSDAEPVMLEQISRISQQIGYYLHRASMRGGTLLSRELHPVAPLLDNLTSALNKVYQRKGVNISLDISPEISFVGEQNDFVEVMGNVLDNACKYCLEFVEISARQTDEHLYIVVEDDGPGIPLSKREVIFDRGQRVDTLRPGQGVGLAVAREITEQYEGKIVAGESMLGGARMEVIFGRQHSAPKDE

The other results are listed elsewhere or left out.

The variants in this test derive from B1. Briefly: enrichment ratio after two sorts for PhoP signalling (ratio (wild type AVST 3.29)); higher = more functional. The conditions noted are these: with PhoP (E. coli).
MYLF: the enrichment ratio was no more than 0.25.

As for KCDW, the enrichment ratio was no more than 0.25.

Take MGWK: the enrichment ratio is no more than 0.25.

VWPV: the enrichment ratio is no more than 0.25.

EAYI: the enrichment ratio is no more than 0.25.

As to LLAE, the enrichment ratio was no more than 0.25.

Take DEEP: the enrichment ratio is no more than 0.25.

On to HFSK, for which the enrichment ratio is no more than 0.25.

With KEID, the enrichment ratio was no more than 0.25.

DCEL: the enrichment ratio is no more than 0.25.

Turning to IIKL, the enrichment ratio is no more than 0.25.

For the variant NRMT, the enrichment ratio was no more than 0.25.

Regarding QRLL, the enrichment ratio is no more than 0.25.

Take QAKW: the enrichment ratio is no more than 0.25.

As to TFVI, the enrichment ratio was no more than 0.25.

In the case of YPKH, the enrichment ratio is no more than 0.25.

For the variant DQPW, the enrichment ratio is no more than 0.25.

With GPGH, the enrichment ratio is no more than 0.25.

For QYIM, the enrichment ratio was no more than 0.25.

In the case of GYLS, the enrichment ratio is no more than 0.25.

With LWPL, the enrichment ratio is no more than 0.25.

With YYGK, the enrichment ratio is no more than 0.25.

Consider IYQV, for which the enrichment ratio is no more than 0.25.

IDQE: the enrichment ratio was no more than 0.25.

For RMMH, the enrichment ratio was no more than 0.25.

As for YHHD, the enrichment ratio was no more than 0.25.

On to KSKH, for which the enrichment ratio is no more than 0.25.

On to GGDE, for which the enrichment ratio was no more than 0.25.

Turning to WLWC, the enrichment ratio was no more than 0.25.

Regarding DYKK, the enrichment ratio is no more than 0.25.

As to LTDN, the enrichment ratio was no more than 0.25.

As to PWNC, the enrichment ratio is no more than 0.25.

Regarding ERSS, the enrichment ratio was no more than 0.25.

Take SPHR: the enrichment ratio is no more than 0.25.

Turning to GDMA, the enrichment ratio was no more than 0.25.

As to ILIR, the enrichment ratio is no more than 0.25.

On to MLNW, for which the enrichment ratio is no more than 0.25.

Regarding MQVP, the enrichment ratio was no more than 0.25.

Consider NIWH, for which the enrichment ratio was no more than 0.25.

SAYS: the enrichment ratio was no more than 0.25.

Regarding ITSK, the enrichment ratio is no more than 0.25.

For RSQL, the enrichment ratio is no more than 0.25.

As for GYWG, the enrichment ratio is no more than 0.25.

On to PHTV, for which the enrichment ratio is no more than 0.25.

As for TARQ, the enrichment ratio is no more than 0.25.

As to IHPG, the enrichment ratio was no more than 0.25.

As for AMKH, the enrichment ratio was no more than 0.25.

On to GSNP, for which the enrichment ratio was no more than 0.25.

In the case of AGVH, the enrichment ratio turned out to be 5.83.

For the variant IFDE, the enrichment ratio was no more than 0.25.

THKR: the enrichment ratio was no more than 0.25.

Regarding KIHP, the enrichment ratio was no more than 0.25.

As for ETES, the enrichment ratio was no more than 0.25.

For GVPQ, the enrichment ratio was no more than 0.25.

Consider HWTA, for which the enrichment ratio was no more than 0.25.

Consider LNGY, for which the enrichment ratio is no more than 0.25.

Take DQAP: the enrichment ratio is no more than 0.25.

With EMKN, the enrichment ratio was no more than 0.25.

Take YSTM: the enrichment ratio came out at 9.87.

FWVP: the enrichment ratio is no more than 0.25.

In the case of FQGH, the enrichment ratio is no more than 0.25.

Take MAYE: the enrichment ratio was 33.3.

As for EGVS, the enrichment ratio was no more than 0.25.

For the variant DSCQ, the enrichment ratio is no more than 0.25.

Take PDLH: the enrichment ratio is no more than 0.25.

For ECAP, the enrichment ratio is no more than 0.25.

With RMMP, the enrichment ratio was no more than 0.25.

As to VFRC, the enrichment ratio is no more than 0.25.

On to RGWQ, for which the enrichment ratio was no more than 0.25.

With HSGE, the enrichment ratio was no more than 0.25.

Turning to VNMD, the enrichment ratio was no more than 0.25.

Take ADIG: the enrichment ratio was no more than 0.25.

Regarding WRTC, the enrichment ratio is no more than 0.25.

For QETS, the enrichment ratio was no more than 0.25.

In the case of INEL, the enrichment ratio was no more than 0.25.

For HCKF, the enrichment ratio is no more than 0.25.

In the case of AVMN, the enrichment ratio was determined as 18.8.

Consider KRTQ, for which the enrichment ratio was no more than 0.25.

As for DHFV, the enrichment ratio is no more than 0.25.

Turning to KGWR, the enrichment ratio was no more than 0.25.

Consider VSPF, for which the enrichment ratio was no more than 0.25.

Take GRGT: the enrichment ratio was no more than 0.25.

Take HLVD: the enrichment ratio is no more than 0.25.

SYKS: the enrichment ratio is no more than 0.25.

As for YVRQ, the enrichment ratio was no more than 0.25.

On to VRYG, for which the enrichment ratio is no more than 0.25.

For the variant FFWL, the enrichment ratio is no more than 0.25.

For GFFS, the enrichment ratio was no more than 0.25.

DEHP: the enrichment ratio was no more than 0.25.

For the variant TFTN, the enrichment ratio is 1.1.

As to FLAP, the enrichment ratio is no more than 0.25.

For the variant QEWL, the enrichment ratio turned out to be 9.38.

Take DQLF: the enrichment ratio was no more than 0.25.

As to AWHN, the enrichment ratio is no more than 0.25.

Consider HVSR, for which the enrichment ratio was no more than 0.25.

As to MYTM, the enrichment ratio was no more than 0.25.

Turning to EKRI, the enrichment ratio was no more than 0.25.

As for FSRN, the enrichment ratio was no more than 0.25.

In the case of CLLN, the enrichment ratio is no more than 0.25.

Regarding QLAQ, the enrichment ratio is no more than 0.25.

Take QKPN: the enrichment ratio is no more than 0.25.

For the variant HVYI, the enrichment ratio is no more than 0.25.

With LWLC, the enrichment ratio is no more than 0.25.

For FDWK, the enrichment ratio was no more than 0.25.

LDLL: the enrichment ratio stood at 0.331.

As for PYGY, the enrichment ratio was no more than 0.25.

With KVPE, the enrichment ratio was no more than 0.25.

On to LCIL, for which the enrichment ratio is no more than 0.25.

On to SWGR, for which the enrichment ratio is no more than 0.25.

Regarding DVNC, the enrichment ratio is no more than 0.25.

Take HYVP: the enrichment ratio was no more than 0.25.

Regarding IPHM, the enrichment ratio is no more than 0.25.

As to GDRT, the enrichment ratio was no more than 0.25.

With VVTM, the enrichment ratio was no more than 0.25.

As for RMDK, the enrichment ratio is no more than 0.25.

In the case of KKSE, the enrichment ratio was no more than 0.25.

Turning to KYTE, the enrichment ratio was no more than 0.25.

KGGR: the enrichment ratio is no more than 0.25.

Consider FWKH, for which the enrichment ratio was no more than 0.25.

Regarding QAQP, the enrichment ratio was no more than 0.25.

On to YYRN, for which the enrichment ratio was no more than 0.25.

In the case of FPSC, the enrichment ratio was no more than 0.25.

For IIMP, the enrichment ratio was no more than 0.25.

For SAVS, the enrichment ratio amounted to 1.31.

With QIRH, the enrichment ratio is no more than 0.25.

Regarding IILQ, the enrichment ratio is no more than 0.25.

Take SNMG: the enrichment ratio came to 12.5.

For the variant DEDF, the enrichment ratio was no more than 0.25.

For EKFR, the enrichment ratio is no more than 0.25.

On to PITL, for which the enrichment ratio was no more than 0.25.

On to LNDM, for which the enrichment ratio is no more than 0.25.

For EQAR, the enrichment ratio was no more than 0.25.

With HTPG, the enrichment ratio was no more than 0.25.

For GGVW, the enrichment ratio was no more than 0.25.

Consider FTAE, for which the enrichment ratio was no more than 0.25.

EQVL: the enrichment ratio is no more than 0.25.

With NPTT, the enrichment ratio is no more than 0.25.

In the case of WVFW, the enrichment ratio is no more than 0.25.

On to LATG, for which the enrichment ratio was no more than 0.25.

Turning to EHKF, the enrichment ratio is no more than 0.25.

Turning to SDIM, the enrichment ratio turned out to be 3.43.

Turning to VQNP, the enrichment ratio is no more than 0.25.

As for EHPA, the enrichment ratio was no more than 0.25.

In the case of QTFA, the enrichment ratio was no more than 0.25.

Consider QDVC, for which the enrichment ratio is no more than 0.25.

SRDQ: the enrichment ratio is no more than 0.25.

Take EICS: the enrichment ratio is no more than 0.25.

For the variant DELR, the enrichment ratio was no more than 0.25.

NNQY: the enrichment ratio is no more than 0.25.

In the case of FDHM, the enrichment ratio was no more than 0.25.

As for VIPW, the enrichment ratio is no more than 0.25.

Consider IDVA, for which the enrichment ratio was no more than 0.25.

With DISM, the enrichment ratio is no more than 0.25.

The values above are taken from a collection of fitness landscapes (doi:10.1126/science.1257360).
